# According to PubChem BioAssay AID1345083 (National Center for Advancing Translational Sciences (NCATS), 2018):
# Hit rate of the full screen: of about 94,000 compounds, about 6,200 (6.6%) were called active. The inconclusive results got no clear call from the source; some entries with a clear call stand among them for comparison. The call rests on the fitted dose curve; in most records, active means well fitted inhibition curve with a large enough effect; inconclusive means small, poorly fitted or top-dose-only effect; inactive means flat fitted curve, though single readings scatter. Potencies beside an inconclusive call are fits to weak or partial responses and may not hold up.
# Test: Cytotoxic Profiling in HEK 293 Cell Line of Diverse Libraries Using Quantitative High-Throughput Screening; further: nearly all actives have a fitted effect of over 60% in size
# Details: HEK 293 viability, ATP luminescence (CellTiter-Glo), 48-72 h; series mostly up to 115 µM
# Procedure, shortened: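 Cytotoxicity was scored by loss of ATP-coupled luminescence (CellTiter-Glo) in HEK 293 cells. Compound treatment ran 48 or 72 hr at 37 degree Celsius, 5% CO2, 95% humidity.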
# Potency means the concentration at half of the fitted maximal effect; tags describe the fitted curve by direction and shape.
row,SMILES,Potency
1,COc1ccc(-c2nc(-c3nnn4c3COC(c3ccc(Cl)cc3)C4)no2)cc1OC (centres undefined),inactive
2,COc1ccc(CN2CC[C@@H]3[C@H]2C(=O)NC[C@H](CCC(=O)N2CCN(c4ccccn4)CC2)N3C)cc1,"inconclusive: 50.1 µM [inhibitor, partial curve, poor fit]"
3,CN(C)C(=O)c1ccc(OC2CCN(C(=O)c3ccc(Br)cc3)CC2)nc1,"inconclusive: 89.1 µM [inhibitor, partial curve, poor fit]"
4,CC1=C[C@@H](CNC(=O)CN(C)C)[C@H](C(C)C)C[C@H]1Cc1nc2ccc(Cl)cc2[nH]1,"inconclusive: 39.8 µM [inhibitor, partial curve, poor fit]"
5,Cn1ncc2c(C(=O)NCc3ccc(F)cc3)cc(-c3ccccc3)nc21,"inconclusive: 44.7 µM [inhibitor, partial curve, poor fit]"
6,COc1ccccc1-c1cc(C(=O)NCC(F)(F)F)nn2cnnc12,inactive
7,O=C(c1ccccc1Cl)N1CCc2nc(-c3ccccc3)nc(-c3ccc(Cl)cc3)c2C1,"inconclusive: 39.8 µM [inhibitor, full curve]"
8,O=C(c1ccc2nnc(-c3cccc(C(F)(F)F)c3)n2c1)N1CCOCC1,inactive
9,COC(=O)N1CCN2C[C@@H](C(N)=O)[C@H](c3ccccc3)[C@H]2C1,inactive
10,COc1cccc(NC(=O)Cn2nc3n(c2=O)CCCC3)c1,inactive
11,O=C(NCc1cccc(F)c1)C1CCCCN1Cc1ccc(-c2ccsc2)cc1 (centres undefined),active: 39.8 µM
12,CC(C)CCN1CCCC2(C1)C(=NC1CCCC1)NC(=O)N2c1cc(F)cc(F)c1 (centres undefined),"inconclusive: 56.2 µM [inhibitor, partial curve, poor fit]"
13,CC(C)NC(=O)c1cc(C(C)(C)C)c2cccn2n1,inactive
14,COc1ccc(-c2cc(-c3cccnc3)c3cncn3c2)cc1OC,"inconclusive: 56.2 µM [inhibitor, full curve]"
15,COc1ccc(NC(=O)c2c(C)oc3ccn(Cc4cccc(F)c4)c(=O)c23)c(OC)c1,"inconclusive: 31.6 µM [inhibitor, full curve]"
16,Cn1ncc2c(C(=O)NCc3cccc(F)c3)cc(-c3cccc(C(F)(F)F)c3)nc21,"inconclusive: 7.94 µM [inhibitor, full curve, poor fit]"
17,Cc1nn(-c2ccccc2)c2c1C(C(C)C)N(C1CCN(C(=O)N(C)C)CC1)C2=O (centres undefined),active: 44.7 µM
18,O=C1COCC2(CN1Cc1cccc(OC(F)(F)F)c1)CN(c1ccccc1F)C2,active: 89.1 µM
19,O=C(c1ccccc1)N1CCC(C(=O)N2CCC(N3CCCC3=O)CC2)CC1,inactive
20,C[C@@H]1C(=O)O[C@H]2[C@H]1CC[C@@]1(C)Cc3sc(NC(=O)CS(=O)(=O)c4ccccc4)nc3[C@@H](C)[C@H]21,"inconclusive: 39.8 µM [inhibitor, full curve, poor fit]"
21,CCCc1ccc(S(=O)(=O)N2C[C@@H](F)C[C@H]2C(=O)N2CCc3ccccc3C2)cc1,"inconclusive: 100 µM [inhibitor, single point]"
22,O=C(NCCc1ccccc1)c1ccc2nnc(CC3CC3)n2c1,inactive
23,Cc1ccc(C)c(NC(=O)c2cc3n(n2)CC(c2ccc(Cl)cc2)OC3)c1 (centres undefined),"inconclusive: 44.7 µM [inhibitor, partial curve, poor fit]"

row,SMILES,Potency
1,COCCOCc1nc(C2CCCCN2C(=O)NCc2ccccc2)no1 (centres undefined),inactive
2,COC1CCCN(c2cc(-c3cccnc3)nc3c(C)noc23)C1 (centres undefined),"inconclusive: 100 µM [inhibitor, partial curve, poor fit]"
3,CCCNC(=O)CCC1CCCN(S(=O)(=O)c2ccc(C)cc2)C1 (centres undefined),"inconclusive: 89.1 µM [inhibitor, single point]"
4,CCn1nc(C)cc1C(=O)N1C[C@H]2OC(=O)N(CCCN3CCOCC3)[C@H]2C1,inactive
5,O=C(Cc1cccc(Cl)c1)N1CCc2nc(-c3ccc(Cl)cc3)nc(-c3ccccc3)c2C1,"inconclusive: 25.1 µM [inhibitor, full curve, poor fit]"
6,Cc1cccc(CNc2ccc3nnc(C)n3n2)c1,"inconclusive: 50.1 µM [inhibitor, partial curve, poor fit]"
7,CSc1ccc2cc(CN3CC[C@@H](O)C3)c(-c3ccc(Cl)cc3)nc2c1,"inconclusive: 89.1 µM [inhibitor, single point]"
8,O=C(C1CCCC1)N1CCn2c(nn(-c3ccc([N+](=O)[O-])cc3)c2=O)C1,"inconclusive: 56.2 µM [inhibitor, partial curve, poor fit]"
9,CC1(C(=O)N2CCN(c3ccccn3)CC2)CCc2cnc(Nc3ccccc3)nc21 (centres undefined),active: 112 µM
10,COCCN1CC(CNc2nc(CCN)nc3sc(C)c(C)c23)CC1=O (centres undefined),inactive
11,CNC(=O)[C@H]1CN(C(=O)c2cccc(OC)c2)[C@]2(C)C(=O)N(CC3CC3)c3ccccc3[C@H]12,inactive
12,Cc1nn2c(c1-c1ccccc1-c1ccccc1)N(Cc1cccc(O)c1)CCC2,"inconclusive: 20 µM [inhibitor, full curve, poor fit]"
13,Cc1noc(C)c1[S+](=O)([O-])N1CCC(C(=O)N2CCC(c3nc4ncccc4[nH]3)CC2)C1 (centres undefined),inactive
14,CC(=O)NC[C@H]1Cn2cc(-c3ccccc3)nc2CO1,inactive
15,CC(C)CCNC(=O)C1(CCO)CCN(c2ncccn2)C1 (centres undefined),"inconclusive: 89.1 µM [inhibitor, partial curve, poor fit]"
16,Cc1ccc(-c2cn3cc(C(=O)NCCc4ccccc4F)nc3s2)cc1,inactive
17,Brc1ccc(-c2ccnc3nc(-c4cccs4)nn23)cc1,"inconclusive: 56.2 µM [inhibitor, partial curve, poor fit]"
18,OC(c1cccc(C(F)(F)F)c1)c1nc(Nc2cccc(Cl)c2)n[nH]1 (centres undefined),active: 63.1 µM
19,CCNC(=O)O[C@H]1C(=O)N(C)C2(CCN([S+](=O)([O-])c3cccs3)CC2)[C@@H]1C(=O)OCC,inactive
20,COC(=O)c1c(NC(=O)c2ccccc2)c2cc(NC(C)C)cnc2n1CC1CCCO1 (centres undefined),inactive
21,CCOC(=O)[C@@H]1CN(C(=O)OCC(C)C)[C@H]2c3ccc(OC)cc3O[C@@H]12,inactive
22,Cc1ccc(C(=O)N2CC(c3nnc(-c4ccc(C)cc4)o3)C3(CCOCC3)C2)cc1 (centres undefined),inactive
23,CCc1nc2c(c(-c3ccc(O)cc3)n1)CCN(C(=O)Nc1ccccc1)CC2,inactive

row,SMILES,Potency
1,Cc1nnc2ccc(N3CCC(NC(=O)Nc4ccccc4)C3)nn12 (centres undefined),inactive
2,CC(C)CNc1ccc2c(n1)C(C)(C(=O)NC(C)C)CN(Cc1ccccc1)C2 (centres undefined),active: 63.1 µM
3,OCC1CN(c2ncccn2)CC12CCN(Cc1ccsc1)CC2 (centres undefined),inactive
4,CCOC(=O)C1CCCN(C(=O)c2nc3sccn3c2-c2ccc(C(F)(F)F)cc2)C1 (centres undefined),"inconclusive: 56.2 µM [inhibitor, partial curve, poor fit]"
5,O=C(c1ccn[nH]1)N1CCC(c2noc(COc3ccc(F)cc3)n2)CC1,"inconclusive: 79.4 µM [inhibitor, partial curve]"
6,CC(C)CCN1CCC2(CC1)CN[S+](=O)([O-])c1ccccc1N2,"inconclusive: 22.4 µM [inhibitor, full curve]"
7,Fc1cc(Nc2ncc(-c3cccnc3)c3c2OCC3)cc(N2CCOCC2)c1,"inconclusive: 31.6 µM [inhibitor, full curve, poor fit]"
8,COc1ccc(-c2cc(N3CCC(NC(=O)Cc4cccc(OC)c4)CC3)n[nH]2)cc1,"inconclusive: 79.4 µM [inhibitor, single point]"
9,Cc1ccc(C(=O)N2CCCCC23Cc2ccccc2NC3=O)cc1 (centres undefined),"inconclusive: 126 µM [inhibitor, single point]"
10,COc1ccc(-c2c(C(=O)NC3CC3)nc3sccn23)cc1,inactive
11,Oc1ccc(-c2nc(C3CC3)nc3c2CN(Cc2ccc(C(F)(F)F)cc2)CC3)cc1,active: 89.1 µM
12,COCC(=O)Nc1cc(C(=O)N2CCc3cc(OC)c(OC)cc3C2)c2c(c1)nc(C1CCC1)n2C,inactive
13,Cc1noc(C)c1S(=O)(=O)N[C@@H]1CN(Cc2ccccc2)C[C@H]1CN(C)C,inactive
14,CN1CCN(C(=O)CC[C@H]2CNC(=O)[C@@H]3[C@@H](CCN3CC(C)(C)C)N2C)CC1,inactive
15,COc1ccc(NC(=O)N2c3ccccc3CC2c2nc(C3CC3)no2)c(C)c1 (centres undefined),"inconclusive: 39.8 µM [inhibitor, full curve, poor fit]"
16,COc1ccc(NC(=O)c2ccc3c(c2)NC(C)(COCC2CC2)CO3)cc1OC (centres undefined),"inconclusive: 100 µM [inhibitor, partial curve, poor fit]"
17,COc1ccc(NC(=O)c2ccc3c(c2)N(C)C2CCCCN2C3=O)cc1Cl (centres undefined),"inconclusive: 89.1 µM [inhibitor, single point]"
18,O=C1c2cnc(-c3cccc(O)c3)nc2OCCN1c1cccc(C(F)(F)F)c1,"inconclusive: 28.2 µM [inhibitor, full curve, poor fit]"
19,COCC1CN(C)CC12CCN(C(=O)c1ccc(OC(F)(F)F)cc1)CC2 (centres undefined),"inconclusive: 39.8 µM [inhibitor, partial curve, poor fit]"
20,CC(C)c1nc2nccc(-c3cccs3)n2n1,inactive
21,CCOc1ccc(CN(Cc2cccc(Oc3ncccn3)c2)C2CC2)cc1,"inconclusive: 50.1 µM [inhibitor, partial curve]"
22,CC(=O)N1CCC(c2nnc3n2C(C(=O)NCc2ccc(Cl)cc2)CC3)CC1 (centres undefined),inactive
23,O=C(NC[C@H]1OC[C@@H](NCc2ccccc2O)[C@@H]1O)c1ccc(F)cc1,inactive
